Measured values reported in publication PMC4203352.
Residue numbers refer to the chain shown, from its start. These are yes or no findings as the source states them, for the method shown. Binding seen in cells or lysates may run through a third protein. Some entries that bind do so weakly or less than the wild type. Where a sequence is shown, tags or fusion partners need not be part of it. Blank lines part the entries; values can stand above or below the binder they belong to.

Chains of the proteins cited; added tags and fusions are not shown.
UniProt Q8TBH0: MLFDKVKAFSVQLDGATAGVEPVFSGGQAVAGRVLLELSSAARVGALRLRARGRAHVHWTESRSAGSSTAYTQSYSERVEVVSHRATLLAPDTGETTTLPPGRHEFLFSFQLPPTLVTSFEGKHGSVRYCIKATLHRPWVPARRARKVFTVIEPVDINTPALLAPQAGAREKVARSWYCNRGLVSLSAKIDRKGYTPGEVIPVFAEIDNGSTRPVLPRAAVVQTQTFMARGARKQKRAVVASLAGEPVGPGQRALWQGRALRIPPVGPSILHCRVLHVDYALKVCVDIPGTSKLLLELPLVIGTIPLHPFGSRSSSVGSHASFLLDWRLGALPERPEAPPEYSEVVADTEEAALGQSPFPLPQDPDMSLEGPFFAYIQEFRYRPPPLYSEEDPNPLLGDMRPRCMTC

Legend:
[1] = biological target: T1, Arrestin domain-containing protein 1 (ARRDC1), N-terminal tandem Strep/FLAG tag (UniProt Q8N5I2); assay: pull-down; HEK293TN cells co-transfected with the indicated plasmids; lysis in 0.5% Triton X-100, 150 mM NaCl, 50 mM Tris, pH 7.8; Strep/FLAG-tagged Txnip (or Arrdc1-4) held on magnetic Streptactin beads; wash with 0.5% Triton X-100, 500 mM NaCl, 50 mM Tris, pH 7.8; eluates by SDS-PAGE and immunoblot
T1 sequence: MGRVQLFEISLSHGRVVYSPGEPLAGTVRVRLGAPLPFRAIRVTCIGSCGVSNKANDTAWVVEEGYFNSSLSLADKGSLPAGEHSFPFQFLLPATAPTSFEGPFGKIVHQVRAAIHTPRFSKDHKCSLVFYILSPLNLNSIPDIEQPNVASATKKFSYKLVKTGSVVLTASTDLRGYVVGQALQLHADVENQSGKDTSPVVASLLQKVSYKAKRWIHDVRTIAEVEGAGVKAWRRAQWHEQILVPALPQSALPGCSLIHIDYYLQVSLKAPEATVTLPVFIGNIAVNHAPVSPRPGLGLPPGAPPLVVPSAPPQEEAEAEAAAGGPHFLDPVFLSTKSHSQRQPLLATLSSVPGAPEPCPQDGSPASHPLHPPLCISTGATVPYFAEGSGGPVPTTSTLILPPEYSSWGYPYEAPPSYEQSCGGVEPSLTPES

[2] = biological target: T2, Thioredoxin-interacting protein (Txnip), N-terminal tandem Strep/FLAG tag (UniProt Q9H3M7); assay: as above
T2 sequence: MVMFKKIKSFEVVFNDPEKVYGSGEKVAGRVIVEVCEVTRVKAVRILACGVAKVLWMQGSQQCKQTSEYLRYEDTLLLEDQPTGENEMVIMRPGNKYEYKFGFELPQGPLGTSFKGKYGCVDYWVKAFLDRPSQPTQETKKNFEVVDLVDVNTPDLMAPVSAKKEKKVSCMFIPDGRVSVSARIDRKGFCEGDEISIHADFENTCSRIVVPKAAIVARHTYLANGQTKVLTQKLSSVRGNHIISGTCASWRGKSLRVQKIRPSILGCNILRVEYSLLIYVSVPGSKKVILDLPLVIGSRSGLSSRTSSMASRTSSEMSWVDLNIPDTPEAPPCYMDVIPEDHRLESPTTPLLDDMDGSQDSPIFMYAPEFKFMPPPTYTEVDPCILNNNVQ

[3] = biological target: T3, Arrestin domain-containing protein 3 (ARRDC3), N-terminal tandem Strep/FLAG tag (UniProt Q96B67); assay: as above
T3 sequence: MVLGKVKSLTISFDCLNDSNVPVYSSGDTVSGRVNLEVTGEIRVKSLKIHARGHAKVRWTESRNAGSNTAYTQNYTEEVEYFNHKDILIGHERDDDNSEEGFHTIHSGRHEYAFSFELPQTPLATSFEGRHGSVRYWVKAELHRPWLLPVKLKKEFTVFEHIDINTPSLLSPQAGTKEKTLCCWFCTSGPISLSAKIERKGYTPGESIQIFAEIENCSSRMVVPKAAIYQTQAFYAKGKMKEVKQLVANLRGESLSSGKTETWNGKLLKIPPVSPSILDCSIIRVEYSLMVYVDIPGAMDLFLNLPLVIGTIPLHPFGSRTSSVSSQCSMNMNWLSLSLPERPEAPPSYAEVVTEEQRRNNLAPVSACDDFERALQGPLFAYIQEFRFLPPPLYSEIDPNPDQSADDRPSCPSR

[4] = biological target: T4, Arrestin domain-containing protein 4 (ARRDC4), N-terminal tandem Strep/FLAG tag (UniProt Q8NCT1); assay: as above
T4 sequence: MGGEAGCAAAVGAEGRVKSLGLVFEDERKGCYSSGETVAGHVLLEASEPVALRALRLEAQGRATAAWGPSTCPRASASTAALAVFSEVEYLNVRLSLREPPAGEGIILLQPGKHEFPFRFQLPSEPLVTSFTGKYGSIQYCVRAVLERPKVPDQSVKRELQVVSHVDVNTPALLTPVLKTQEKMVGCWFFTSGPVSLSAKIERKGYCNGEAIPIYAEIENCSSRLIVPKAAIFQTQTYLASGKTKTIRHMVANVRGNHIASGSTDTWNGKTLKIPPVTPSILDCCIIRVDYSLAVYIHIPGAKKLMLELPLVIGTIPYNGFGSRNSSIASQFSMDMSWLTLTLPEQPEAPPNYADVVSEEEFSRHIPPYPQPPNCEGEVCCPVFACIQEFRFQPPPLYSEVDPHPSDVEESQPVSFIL

[5] = biological target: T5, Txnip C247S mutant, N-terminal tandem Strep/FLAG tag (UniProt Q9H3M7); assay: as above
T5 sequence: T2 sequence with C247S

[6] = biological target: Arrestin domain-containing protein 2 (ARRDC2), N-terminal tandem Strep/FLAG tag (UniProt Q8TBH0); assay: as above
[7] = biological target: T2, Thioredoxin-interacting protein (Txnip), N-terminal tandem Strep/FLAG tag; assay: pull-down; HEK293TN cells transfected with Txnip or Txnip C247S only; Txnip held on Streptactin beads; endogenous PDIA6 detected by Western blot
[8] = biological target: T5, Txnip C247S mutant, N-terminal tandem Strep/FLAG tag; assay: as above

- binding [1]: no binding
- binding [2]: binds
- binding [3]: no binding
- binding [4]: no binding
- binding [5]: no binding
- binding [6]: no binding
B1: full-length PDIA6 (1-421), HA tag (enzyme, UniProt Q15084 20-440)
chain: LYSSSDDVIELTPSNFNREVIQSDSLWLVEFYAPWCGHCQRLTPEWKKAATALKDVVKVGAVDADKHHSLGGQYGVQGFPTIKIFGSNKNRPEDYQGGRTGEAIVDAALSALRQLVKDRLGGRSGGYSSGKQGRSDSSSKKDVIELTDDSFDKNVLDSEDVWMVEFYAPWCGHCKNLEPEWAAAASEVKEQTKGKVKLAAVDATVNQVLASRYGIRGFPTIKIFQKGESPVDYDGGRTRSDIVSRALDLFSDNAPPPELLEIINEDIAKRTCEEHQLCVVAVLPHILDTGAAGRNSYLEVLLKLADKYKKKMWGWLWTEAGAQSELETALGIGGFGYPAMAAINARKMKFALLKGSFSEQGINEFLRELSFGRGSTAPVGGGAFPTIVEREPWDGRDGELPVEDDIDLSDVELDDLGKDEL

- binding [7]: binds
- binding [8]: no binding
B2: endogenous PDIA6 (enzyme, UniProt Q15084 20-440)
chain: B1 chain
